# Test results as given in the supplement of paper PMC10037445.
# Several values for one entry are separate records, joined by “and”; a condition that tells them apart may be missing. Equal entries are not always repeated. The full ranking holds about 2,900 compounds; the median of “NF-kB SEAP reporter activity, fold change vs agonist alone” is about 0.99, and the highest 2% start at about 2.6. Some of the results follow.
# Tests used:
# RAW-Dual [1] = assay: NF-kB SEAP reporter activity, fold change vs agonist alone; cytotoxicity flag (confluency mask): cytotoxic (confluency <70% of control); higher = enhanced NF-kB activity
# Summary of the method: (§1)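 Supernatant from RAW-Dual macrophages was read after 20 hours for IRF by QuantiLuc luminescence and for NF-κB by QuantiBlue absorbance at 620 nm. The cells (50,000 cells/well in DMEM, 384-well plates, 37 °C, 5% CO2) had received 50 nL of library stock by pin tool and, 1 h later, a PRR agonist. Reporter activity is expressed relative to agonist-alone wells as fold change, and wells were flagged cytotoxic if IncuCyte confluency was under 70% of agonist controls in both mask sets.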
# RAW-Dual [2] = assay: NF-kB SEAP reporter activity, fold change vs agonist alone; higher = enhanced NF-kB activity; details: library stock concentration (final ~1000-fold dilution): 10 mM
# Summary of the method: as §1
# RAW-Dual [3] = assay: NF-kB SEAP reporter activity, fold change vs agonist alone; cytotoxicity flag (confluency mask): not cytotoxic; higher = enhanced NF-kB activity
# Summary of the method: as §1
# [4] = agonist: ODN 1826 (TLR9) 0.5 ug/mL
# [5] = agonist: Pam2CSK4 (TLR2/6) 0.1 ug/mL
# [6] = agonist: Pam3CSK4 (TLR2/1) 0.1 ug/mL
# [7] = cytotoxicity flag (confluency mask): cytotoxic (confluency <70% of control), agonist: Imiquimod (TLR7) […]
# [8] = cytotoxicity flag (confluency mask): cytotoxic (confluency <70% of control), agonist: MPLA (TLR4) […]
# [9] = cytotoxicity flag (confluency mask): not cytotoxic, agonist: Imiquimod (TLR7) […]
# [10] = cytotoxicity flag (confluency mask): not cytotoxic, agonist: MPLA (TLR4) […]
compound,measurement,setting,value
CN(CC(=O)N(Cc1ccc(C2CCCCC2)cc1)c1ccc(C(=O)O)cc1)S(=O)(=O)c1c(F)c(F)c(F)c(F)c1F (library stock concentration (final ~1000-fold dilution): 10 mM),NF-kB SEAP reporter activity,RAW-Dual [1]; agonist: LPS (TLR4) 0.1 ug/mL,0.526
same,NF-kB SEAP reporter activity,RAW-Dual [1]; [4],1.82
same,NF-kB SEAP reporter activity,RAW-Dual [1]; [5],0.512
same,NF-kB SEAP reporter activity,RAW-Dual [1]; [6],0.635
CN(CC(=O)N(Cc1ccc(C2CCCCC2)cc1)c1ccc(C(=O)O)cc1)S(=O)(=O)c1c(F)c(F)c(F)c(F)c1F,NF-kB SEAP reporter activity,RAW-Dual [2]; [7],1.25
same,NF-kB SEAP reporter activity,RAW-Dual [2]; [8],0.918
OC(CNCC(O)C1CCc2cc(F)ccc2O1)C1CCc2cc(F)ccc2O1 (configuration not stated),NF-kB SEAP reporter activity,RAW-Dual [2]; [7],1.43
same,NF-kB SEAP reporter activity,RAW-Dual [2]; [8],1.23
OC(CNCC(O)C1CCc2cc(F)ccc2O1)C1CCc2cc(F)ccc2O1 (configuration not stated) (library stock concentration (final ~1000-fold dilution): 10 mM),NF-kB SEAP reporter activity,RAW-Dual [1]; agonist: LPS (TLR4) 0.1 ug/mL,0.802
same,NF-kB SEAP reporter activity,RAW-Dual [1]; [4],0.486
same,NF-kB SEAP reporter activity,RAW-Dual [1]; [5],0.658
same,NF-kB SEAP reporter activity,RAW-Dual [1]; [6],0.324
CC(=O)O/N=C1/C(=O)N(Cc2cc(Cl)ccc2Cl)c2ccc(Cl)cc21,NF-kB SEAP reporter activity,RAW-Dual [2]; [9],0.428
same,NF-kB SEAP reporter activity,RAW-Dual [2]; [10],1.12
CC(=O)O/N=C1/C(=O)N(Cc2cc(Cl)ccc2Cl)c2ccc(Cl)cc21 (library stock concentration (final ~1000-fold dilution): 10 mM),NF-kB SEAP reporter activity,RAW-Dual [3]; agonist: LPS (TLR4) 0.1 ug/mL,0.527
same,NF-kB SEAP reporter activity,RAW-Dual [3]; [4],0.669
same,NF-kB SEAP reporter activity,RAW-Dual [3]; [5],0.801
same,NF-kB SEAP reporter activity,RAW-Dual [3]; [6],0.323
NC(=O)C1CCC2CN1C(=O)N2OS(=O)(=O)O (configuration not stated) (library stock concentration (final ~1000-fold dilution): 10 mM),NF-kB SEAP reporter activity,RAW-Dual [3]; agonist: LPS (TLR4) 0.1 ug/mL,0.95
same,NF-kB SEAP reporter activity,RAW-Dual [3]; [4],0.976
same,NF-kB SEAP reporter activity,RAW-Dual [3]; [5],0.98
same,NF-kB SEAP reporter activity,RAW-Dual [3]; [6],1.09
NC(=O)C1CCC2CN1C(=O)N2OS(=O)(=O)O (configuration not stated),NF-kB SEAP reporter activity,RAW-Dual [2]; [9],0.954
same,NF-kB SEAP reporter activity,RAW-Dual [2]; [10],0.972
CC(C)(C#N)c1cc(Cn2cncn2)cc(C(C)(C)C#N)c1,NF-kB SEAP reporter activity,RAW-Dual [2]; [9],0.889
same,NF-kB SEAP reporter activity,RAW-Dual [2]; [10],1.04
CC(C)(C#N)c1cc(Cn2cncn2)cc(C(C)(C)C#N)c1 (library stock concentration (final ~1000-fold dilution): 10 mM),NF-kB SEAP reporter activity,RAW-Dual [3]; agonist: LPS (TLR4) 0.1 ug/mL,1.35
same,NF-kB SEAP reporter activity,RAW-Dual [3]; [4],0.953
same,NF-kB SEAP reporter activity,RAW-Dual [3]; [5],0.983
same,NF-kB SEAP reporter activity,RAW-Dual [3]; [6],0.948
COc1cc2nccc(Oc3ccc(NC(=O)Nc4cc(C)on4)c(Cl)c3)c2cc1OC (library stock concentration (final ~1000-fold dilution): 10 mM),NF-kB SEAP reporter activity,RAW-Dual [3]; agonist: LPS (TLR4) 0.1 ug/mL,0.306
same,NF-kB SEAP reporter activity,RAW-Dual [3]; [4],0.244
same,NF-kB SEAP reporter activity,RAW-Dual [3]; [5],0.095
same,NF-kB SEAP reporter activity,RAW-Dual [3]; [6],0.174
COc1cc2nccc(Oc3ccc(NC(=O)Nc4cc(C)on4)c(Cl)c3)c2cc1OC,NF-kB SEAP reporter activity,RAW-Dual [2]; [9],0.333
same,NF-kB SEAP reporter activity,RAW-Dual [2]; [10],0.365
CC(C)CC(NC(=O)C(O)C(N)Cc1ccccc1)C(=O)O (configuration not stated) (library stock concentration (final ~1000-fold dilution): 10 mM),NF-kB SEAP reporter activity,RAW-Dual [3]; agonist: LPS (TLR4) 0.1 ug/mL,0.885
same,NF-kB SEAP reporter activity,RAW-Dual [3]; [4],0.978
same,NF-kB SEAP reporter activity,RAW-Dual [3]; [5],1.05
same,NF-kB SEAP reporter activity,RAW-Dual [3]; [6],0.986
CC(C)CC(NC(=O)C(O)C(N)Cc1ccccc1)C(=O)O (configuration not stated),NF-kB SEAP reporter activity,RAW-Dual [2]; [9],0.903
same,NF-kB SEAP reporter activity,RAW-Dual [2]; [10],0.937
C=CCNC(N)=S (library stock concentration (final ~1000-fold dilution): 10 mM),NF-kB SEAP reporter activity,RAW-Dual [3]; agonist: LPS (TLR4) 0.1 ug/mL,0.949 and 1.31
same,NF-kB SEAP reporter activity,RAW-Dual [3]; [4],1 and 1.13
same,NF-kB SEAP reporter activity,RAW-Dual [3]; [5],0.994 and 1.09
same,NF-kB SEAP reporter activity,RAW-Dual [3]; [6],1.01 and 1.08
C=CCNC(N)=S,NF-kB SEAP reporter activity,RAW-Dual [2]; [10],1.01
